{"source": "the supplement of paper PMC8728848", "binders": {"B1": {"name": "PX9961A-pdi-456-24-456 (Parabacteroides distasonis) (protein)", "chain": "KTSSTQLPTIDAISSVADLTNAVNGVYEQQATEVGSYGAEFTLLADLRSGDFQSISTVNHAGPMYRYQTGKNDEMVYSFYKLFYNSLARLNNVLAAAENLEGADVDILKGELYAMRALYHFDLARVFAKLPSTTDMNDLGIVLSTEVYPTDYIGTRATLQQTYDQILKDIETALPLLSKDKQTGHINYWGALAIRARAYLYLEKNKEALADCKEIIASSPYKLYTRDEYIGAWDKEGTNEAIFEILVTPNYNAQRNSIGYFTHASGYGECAATESFLEELAKHPGDIRTELFAKETDNGYDGTYPQKYKGRDGQIYVNNPKVVRLSEVYLIAAEAALKAGDTSAAAGYMNTLRKNRIENYTDVASITLDDILLERRLELFTEGHTAWDAWRNGKSVNNKFVGEVKPGDYRTIMAIPIGEITVSRGQLIQNPGY"}}, "assay_in_all_cases": "glycan array binding signal (z-score within array); higher = stronger binding", "conditions_in_all_cases": "glycan notation: IUPAC condensed, linker removed", "key": {"[1]": {"molecular_target": "Fuc(a1-3)[Gal(b1-4)]GlcNAc(b1-3)Gal(b1-3)[Fuc(a1-4)]GlcNAc", "how_it_was_run": "(§1)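 Glycan array binding is given as a within-array Z-score, which can be read as non-binding when negative. The arrays, 3228 of them, came from the Consortium for Functional Glycomics database and were retained only where the protein sequence was available. Z-scores were averaged across arrays of the same protein sequence at different concentrations or buffers and across linkers.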"}, "[2]": {"molecular_target": "Fuc(a1-3)[Gal(b1-4)]GlcNAc(b1-3)Gal(b1-4)[Fuc(a1-3)]GlcNAc", "how_it_was_run": "as §1"}, "[3]": {"molecular_target": "Fuc(a1-3)[Gal(b1-4)]GlcNAc(b1-3)Gal(b1-4)[Fuc(a1-3)]GlcNAc(b1-3)Gal(b1-4)[Fuc(a1-3)]GlcNAc", "how_it_was_run": "as §1"}, "[4]": {"molecular_target": "Fuc(a1-3)[Gal(b1-4)]GlcNAc(b1-3)GalNAc", "how_it_was_run": "as §1"}, "[5]": {"molecular_target": "Fuc(a1-3)[Gal(b1-4)]GlcNAc(b1-6)GalNAc", "how_it_was_run": "as §1"}, "[6]": {"molecular_target": "Fuc(a1-3)[Gal(b1-4)]GlcNAc(b1-6)[Gal(b1-3)GlcNAc(b1-3)]Gal(b1-4)Glc", "how_it_was_run": "as §1"}, "[7]": {"molecular_target": "Fuc(a1-3)[Gal(b1-4)]GlcNAc6S", "how_it_was_run": "as §1"}, "[8]": {"molecular_target": "Fuc(a1-3)[Gal3S(b1-4)]Glc", "how_it_was_run": "as §1"}, "[9]": {"molecular_target": "Fuc(a1-3)[Gal3S(b1-4)]GlcNAc", "how_it_was_run": "as §1"}, "[10]": {"molecular_target": "Fuc(a1-3)[Gal3S(b1-4)]GlcNAc6S", "how_it_was_run": "as §1"}, "[11]": {"molecular_target": "Fuc(a1-3)[GalNAc(b1-4)]GlcNAc", "how_it_was_run": "as §1"}, "[12]": {"molecular_target": "Fuc(a1-3)[GalNAc(b1-4)]GlcNAc6S", "how_it_was_run": "as §1"}, "[13]": {"molecular_target": "Fuc(a1-4)GlcNAc", "how_it_was_run": "as §1"}, "[14]": {"molecular_target": "Fuc(b1-3)GlcNAc", "how_it_was_run": "as §1"}, "[15]": {"molecular_target": "Gal(a1-2)Gal", "how_it_was_run": "as §1"}, "[16]": {"molecular_target": "Gal(a1-3)Gal", "how_it_was_run": "as §1"}, "[17]": {"molecular_target": "Gal(a1-3)Gal(b1-3)GlcNAc", "how_it_was_run": "as §1"}, "[18]": {"molecular_target": "Gal(a1-3)Gal(b1-3)GlcNAc(b1-2)Man", "how_it_was_run": "as §1"}, "[19]": {"molecular_target": "Gal(a1-3)Gal(b1-3)GlcNAc(b1-2)Man(a1-3)[Gal(a1-3)Gal(b1-3)GlcNAc(b1-2)Man(a1-6)]Man(b1-4)GlcNAc(b1-4)GlcNAc", "how_it_was_run": "as §1"}, "[20]": {"molecular_target": "Gal(a1-3)Gal(b1-3)GlcNAc(b1-3)GalNAc", "how_it_was_run": "as §1"}, "[21]": {"molecular_target": "Gal(a1-3)Gal(b1-3)GlcNAc(b1-6)GalNAc", "how_it_was_run": "as §1"}, "[22]": {"molecular_target": "Gal(a1-3)Gal(b1-3)[Fuc(a1-4)]GlcNAc(b1-2)Man(a1-3)[Gal(a1-3)Gal(b1-3)[Fuc(a1-4)]GlcNAc(b1-2)Man(a1-6)]Man(b1-4)GlcNAc(b1-4)GlcNAc", "how_it_was_run": "as §1"}, "[23]": {"molecular_target": "Gal(a1-3)Gal(b1-4)Glc", "how_it_was_run": "as §1"}, "[24]": {"molecular_target": "Gal(a1-3)Gal(b1-4)GlcNAc", "how_it_was_run": "as §1"}, "[25]": {"molecular_target": "Gal(a1-3)Gal(b1-4)GlcNAc(b1-2)Man", "how_it_was_run": "as §1"}, "[26]": {"molecular_target": "Gal(a1-3)Gal(b1-4)GlcNAc(b1-2)Man(a1-3)[Gal(a1-3)Gal(b1-4)GlcNAc(b1-2)Man(a1-6)]Man(b1-4)GlcNAc(b1-4)GlcNAc", "how_it_was_run": "as §1"}, "[27]": {"molecular_target": "Gal(a1-3)Gal(b1-4)GlcNAc(b1-3)GalNAc", "how_it_was_run": "as §1"}, "[28]": {"molecular_target": "Gal(a1-3)Gal(b1-4)GlcNAc(b1-6)GalNAc", "how_it_was_run": "as §1"}, "[29]": {"molecular_target": "Gal(a1-3)Gal(b1-4)[Fuc(a1-3)]GlcNAc", "how_it_was_run": "as §1"}, "[30]": {"molecular_target": "Gal(a1-3)Gal(b1-4)[Fuc(a1-3)]GlcNAc(b1-2)Man(a1-3)[Gal(a1-3)Gal(b1-4)[Fuc(a1-3)]GlcNAc(b1-2)Man(a1-6)]Man(b1-4)GlcNAc(b1-4)GlcNAc", "how_it_was_run": "as §1"}, "[31]": {"molecular_target": "Gal(a1-3)GalNAc", "how_it_was_run": "as §1"}, "[32]": {"molecular_target": "Gal(a1-3)[Gal(a1-4)]Gal(b1-4)GlcNAc", "how_it_was_run": "as §1"}, "[33]": {"molecular_target": "Gal(a1-4)Gal(b1-3)GlcNAc(b1-2)Man(a1-3)[Gal(a1-4)Gal(b1-3)GlcNAc(b1-2)Man(a1-6)]Man(b1-4)GlcNAc(b1-4)GlcNAc", "how_it_was_run": "as §1"}, "[34]": {"molecular_target": "Gal(a1-4)Gal(b1-4)Glc", "how_it_was_run": "as §1"}, "[35]": {"molecular_target": "Gal(a1-4)Gal(b1-4)GlcNAc", "how_it_was_run": "as §1"}, "[36]": {"molecular_target": "Gal(a1-4)Gal(b1-4)GlcNAc(b1-2)Man(a1-3)[Gal(a1-4)Gal(b1-4)GlcNAc(b1-2)Man(a1-6)]Man(b1-4)GlcNAc(b1-4)GlcNAc", "how_it_was_run": "as §1"}, "[37]": {"molecular_target": "Gal(a1-4)Gal(b1-4)GlcNAc(b1-3)Gal(b1-4)Glc", "how_it_was_run": "as §1"}, "[38]": {"molecular_target": "Gal(a1-4)GlcNAc", "how_it_was_run": "as §1"}}, "note": "The list shows a part of the results.", "data": [{"binder": "B1", "values": [{"measurement": "glycan array binding signal (z-score)", "setting": "[1]", "value": -0.331}, {"measurement": "glycan array binding signal (z-score)", "setting": "[2]", "value": 0.307}, {"measurement": "glycan array binding signal (z-score)", "setting": "[3]", "value": -0.015}, {"measurement": "glycan array binding signal (z-score)", "setting": "[4]", "value": -0.161}, {"measurement": "glycan array binding signal (z-score)", "setting": "[5]", "value": -0.18}, {"measurement": "glycan array binding signal (z-score)", "setting": "[6]", "value": -0.42}, {"measurement": "glycan array binding signal (z-score)", "setting": "[7]", "value": -0.406}, {"measurement": "glycan array binding signal (z-score)", "setting": "[8]", "value": 0.02}, {"measurement": "glycan array binding signal (z-score)", "setting": "[9]", "value": 0.282}, {"measurement": "glycan array binding signal (z-score)", "setting": "[10]", "value": -0.41}, {"measurement": "glycan array binding signal (z-score)", "setting": "[11]", "value": 0.918}, {"measurement": "glycan array binding signal (z-score)", "setting": "[12]", "value": -0.23}, {"measurement": "glycan array binding signal (z-score)", "setting": "[13]", "value": 7.24}, {"measurement": "glycan array binding signal (z-score)", "setting": "[14]", "value": -0.388}, {"measurement": "glycan array binding signal (z-score)", "setting": "[15]", "value": -0.234}, {"measurement": "glycan array binding signal (z-score)", "setting": "[16]", "value": -0.037}, {"measurement": "glycan array binding signal (z-score)", "setting": "[17]", "value": -0.523}, {"measurement": "glycan array binding signal (z-score)", "setting": "[18]", "value": -0.316}, {"measurement": "glycan array binding signal (z-score)", "setting": "[19]", "value": 0.289}, {"measurement": "glycan array binding signal (z-score)", "setting": "[20]", "value": -0.446}, {"measurement": "glycan array binding signal (z-score)", "setting": "[21]", "value": -0.286}, {"measurement": "glycan array binding signal (z-score)", "setting": "[22]", "value": -0.006}, {"measurement": "glycan array binding signal (z-score)", "setting": "[23]", "value": -0.148}, {"measurement": "glycan array binding signal (z-score)", "setting": "[24]", "value": 0.08}, {"measurement": "glycan array binding signal (z-score)", "setting": "[25]", "value": -0.561}, {"measurement": "glycan array binding signal (z-score)", "setting": "[26]", "value": 0.21}, {"measurement": "glycan array binding signal (z-score)", "setting": "[27]", "value": -0.276}, {"measurement": "glycan array binding signal (z-score)", "setting": "[28]", "value": -0.576}, {"measurement": "glycan array binding signal (z-score)", "setting": "[29]", "value": -0.421}, {"measurement": "glycan array binding signal (z-score)", "setting": "[30]", "value": 0.63}, {"measurement": "glycan array binding signal (z-score)", "setting": "[31]", "value": -0.152}, {"measurement": "glycan array binding signal (z-score)", "setting": "[32]", "value": 0.431}, {"measurement": "glycan array binding signal (z-score)", "setting": "[33]", "value": -0.338}, {"measurement": "glycan array binding signal (z-score)", "setting": "[34]", "value": 0.665}, {"measurement": "glycan array binding signal (z-score)", "setting": "[35]", "value": 0.305}, {"measurement": "glycan array binding signal (z-score)", "setting": "[36]", "value": 0.514}, {"measurement": "glycan array binding signal (z-score)", "setting": "[37]", "value": 0.043}, {"measurement": "glycan array binding signal (z-score)", "setting": "[38]", "value": -0.171}]}]}
